Among all 310,000 compounds or so, about 2,200 (0.71%) showed an effect of 50% or more. The effect is printed as a negative number. This is one part of the list.
molecular target: human ether-à-go-go-related gene (hERG) potassium channel (human, UniProt Q12809); test: primary screen, population patch clamp on CHO cells stably expressing hERG
Sequence (Q12809 whole entry, looked up): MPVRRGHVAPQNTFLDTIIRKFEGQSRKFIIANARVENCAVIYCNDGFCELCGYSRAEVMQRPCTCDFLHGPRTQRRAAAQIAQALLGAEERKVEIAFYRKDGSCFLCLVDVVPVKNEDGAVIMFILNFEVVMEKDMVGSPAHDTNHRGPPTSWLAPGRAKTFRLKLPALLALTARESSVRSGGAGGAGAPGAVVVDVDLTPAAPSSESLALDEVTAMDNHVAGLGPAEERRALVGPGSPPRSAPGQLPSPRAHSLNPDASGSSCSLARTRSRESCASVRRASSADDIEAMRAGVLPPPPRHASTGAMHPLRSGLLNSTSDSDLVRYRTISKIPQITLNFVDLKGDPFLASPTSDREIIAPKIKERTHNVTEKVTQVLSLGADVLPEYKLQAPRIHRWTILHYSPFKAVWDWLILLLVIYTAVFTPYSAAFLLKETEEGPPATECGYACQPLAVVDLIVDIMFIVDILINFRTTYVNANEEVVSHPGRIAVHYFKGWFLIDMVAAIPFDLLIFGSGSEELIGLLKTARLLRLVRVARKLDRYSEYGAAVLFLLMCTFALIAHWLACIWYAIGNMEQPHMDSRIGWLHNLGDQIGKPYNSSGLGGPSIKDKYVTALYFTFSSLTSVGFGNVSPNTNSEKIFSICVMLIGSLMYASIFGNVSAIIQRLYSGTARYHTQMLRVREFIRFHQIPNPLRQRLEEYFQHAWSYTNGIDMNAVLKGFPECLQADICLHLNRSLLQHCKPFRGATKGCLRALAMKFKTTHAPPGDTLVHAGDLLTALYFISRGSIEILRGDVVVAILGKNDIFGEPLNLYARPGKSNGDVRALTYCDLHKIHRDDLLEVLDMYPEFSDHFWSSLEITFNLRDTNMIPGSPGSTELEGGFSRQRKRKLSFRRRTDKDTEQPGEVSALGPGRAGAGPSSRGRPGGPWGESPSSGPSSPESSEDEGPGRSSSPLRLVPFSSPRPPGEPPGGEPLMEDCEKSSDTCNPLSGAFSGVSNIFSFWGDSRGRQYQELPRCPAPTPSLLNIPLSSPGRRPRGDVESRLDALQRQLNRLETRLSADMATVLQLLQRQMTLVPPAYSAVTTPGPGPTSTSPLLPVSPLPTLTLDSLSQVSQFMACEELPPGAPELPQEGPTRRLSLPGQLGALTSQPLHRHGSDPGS

| Compound | hERG current change (%, negative = inhibition) at 1uM [%] |
| --- | --- |
| O=C(CSc1ccc(-c2ccco2)nn1)c1ccc(F)cc1 | -2.59 |
| COC(=O)NC(NC(=S)Nc1cccc(C)c1)C(Cl)(Cl)Cl (centres unmarked) | 7.24 |
| O=C(CSc1nnc(-c2ccncc2)o1)N1CCCC1 | 6.86 |
| CCOc1cccc(N(C(=O)c2ccco2)C(C(=O)NC2CCCC2)c2cccnc2)c1 (centres unmarked) | 11.3 |
| COC(=O)c1sccc1NC(=O)Nc1cccc(C)c1C | 12.9 |
| CCn1c(NCc2ccc3c(c2)OCO3)nc2ccccc21 | -0.884 |
| Cc1cc(C)c(NC(=O)c2cn3c4c(c(N5CCN(C)CC5)c(F)cc4c2=O)OCC3C)c(C)c1 (centres unmarked) | -4.19 |
| COc1ccc(-c2cn3cccnc3n2)cc1NC(=O)C(C)C | 14.6 |
| O=C(CSCc1c(F)cccc1Cl)NCc1ccncc1 | 10.1 |
| Cc1cc(S(=O)(=O)NCC2CC2)c(Cl)cc1Cl | 8.11 |
| O=C(C1CCN(S(=O)(=O)c2cccc3cccnc23)CC1)N1CCCC1 | 9.79 |
| COc1ccccc1NS(=O)(=O)c1ccc2[nH]c(=O)[nH]c2c1 | 5.1 |
| O=C(c1ccco1)N1CCN(Cc2cn[nH]c2-c2ccc(F)cc2F)CC1 | 11.5 |
| CC(C)OCCCNC(=O)C1CCC(CNS(=O)(=O)c2ccc(Cl)cc2)CC1 (centres unmarked) | 11.2 |
| COc1ccc(NC(=O)CN(C)C(=O)Cn2c(=O)oc3ccccc32)cc1 | 13.9 |
| CCN(CC)S(=O)(=O)c1ccc(N/N=C/c2ccc(OC)c(OC)c2OC)nc1 | 10.9 |
| C[C@@H](O)C1NC(=O)[C@H](CCCCN)NC(=O)c2cc([N+](=O)[O-])cc(I)c2OCC[C@@H](C(N)=O)NC1=O (some centres unmarked) | 18.3 |
| COc1ccc(S(=O)(=O)N2CN(CCc3ccc(OC)c(OC)c3)c3nc4ccccc4nc32)cc1 | 5.2 |
| COc1cc(C=O)ccc1OCCSc1ccc(Cl)cc1 | 0.559 |

| Compound | hERG current change (%, negative = inhibition) at 1uM [%] |
| --- | --- |
| CCN(CC)C1CCN(C(=O)c2cc(COc3ccc(-n4cncn4)cc3)on2)C1 (centres unmarked) | 13.1 |
| COC(=O)c1ccc(CSc2nnc(Nc3ccccc3OC)s2)o1 | -30 |
| COC(=O)c1ccccc1SC(CC(=O)c1ccccc1)c1ccc(F)cc1 (centres unmarked) | 10 |
| O=C(c1ccc2nc[nH]c2c1)N1CCN(c2ncc(C(F)(F)F)cc2Cl)CC1 | 6.29 |
| COc1cc(/C=C(\C#N)C(=O)NCC2CCCO2)ccc1OCC(=O)O (centres unmarked) | 11.5 |
| CCC(C)n1c(O)c(/C=N/Nc2nc3c(c(=O)n(C)c(=O)n3C)n2C)c(=O)[nH]c1=S (centres unmarked) | 11.6 |
| COCCN(C(=O)c1ccc(-c2ccc(Cl)cc2)o1)c1c(N)n(Cc2ccccc2)c(=O)[nH]c1=O | 4.91 |
| COc1ccc(N2C(=O)CC(N3CCN(c4ccccc4F)CC3)C2=O)cc1 (centres unmarked) | 10.7 |
| COc1ccc(CNC(=O)c2noc(C)c2[N+](=O)[O-])cc1 | 6.55 |
| Clc1cccc(-c2nc(-c3ccccn3)no2)c1 | 10.7 |
| O=C(COc1ccccc1)N1N=C(c2cccnc2)CC1(O)C(F)(F)F (centres unmarked) | 12.5 |
| COc1cc(OC)cc(-c2cc3nc(C)c(CCC(=O)O)c(C)n3n2)c1 | 25.6 |
| CN1C(=O)c2ccc(NC(=O)CSc3ccccc3)cc2C1=O | 13.1 |
| CCCc1nc(NCC2CCCO2)c2nnn(Cc3ccccc3)c2n1 (centres unmarked) | 14.3 |
| COCCN(C)C(=O)CCc1nnc(Cc2ccc(-c3ccccc3)cc2)o1 | -5.78 |
| Cc1cccc(NS(=O)(=O)c2nnc(NC(=O)c3ccc(Cl)cc3)s2)c1 | 9.52 |
| CCOC(=O)c1csc(NC(C)=O)n1 | 7.33 |
| COc1ccc(C(CC(=O)Nc2ccccn2)N2Cc3ccccc3C2=O)cc1 (centres unmarked) | 9.84 |
| Cc1cccc(NC(=S)N2CCN(Cc3ccccc3)CC2)c1C | -4.61 |

| Compound | hERG current change (%, negative = inhibition) at 1uM [%] |
| --- | --- |
| O=C(NCC1CCCN1S(=O)(=O)c1cccs1)c1ccc(F)cc1 (centres unmarked) | 1.26 |
| CCOC(=O)C1CCN(C(=O)COc2ccc(S(=O)(=O)N3CCOCC3)cc2C)CC1 | 7.44 |
| COc1ccc(C2C3=C(N=C4SCC(=O)N42)c2ccccc2CC3)cc1 (centres unmarked) | -1.65 |
| CSc1cccc(NC(=O)CCNS(=O)(=O)c2ccc3[nH]c(=O)oc3c2)c1 | 14.1 |
| NCc1c(O)ccc2ccccc12 | 13.7 |
| CCC(C)n1c(O)c(C=NCCc2ccccc2)c(=O)[nH]c1=S (centres unmarked) | 10.6 |
| CCOc1cc(C(=O)N(C)Cc2cc3cc(OC)ccc3[nH]c2=O)cc(OCC)c1OCC | 0.31 |
| CCN(CC(=O)N1CCOCC1)S(=O)(=O)c1ccc(Cl)cc1 | 5.49 |
| O=[N+]([O-])c1ccc(NCCc2ccccc2)c(Br)c1 | 14.2 |
| CCOc1ccc(N=Cc2c(O)n(-c3cccc(C)n3)c(=O)c3ccccc23)cc1 | -6.39 |
| COc1cccc(NC(=S)NC(=O)/C=C/c2ccc(F)cc2)c1 | 19 |
| CCO[C@@H]1c2c(ccc3ccc(=O)oc23)OC(C)(C)[C@@H]1O | 14 |
| CCCCNC(=O)C1CCN(Cc2ccccn2)CC1 | 13.2 |
| O=C(CSc1nccc(=O)[nH]1)NC1CCCc2ccccc21 (centres unmarked) | 9.07 |
| CCOC(=O)C1CCCN(C(=O)c2ccc(C)c(NC(=O)C3=C(C)OCCS3)c2)C1 (centres unmarked) | 0.737 |
| CCOc1ccc(Cn2nnc(-c3ccc(S(C)(=O)=O)cc3)n2)cc1OCC | 10.6 |
| O=C(CNC(=O)c1cccs1)N=Nc1c(O)[nH]c2ccc(Br)cc12 | 13 |
| COc1ccc(-n2c(-c3ccc(Br)cc3)c[n+]3c2CCCCC3)cc1.[Br-] | -24.6 |

— publication PMC4336329 (PLoS ONE, 2015)
